Measurements as given in patent US9957330B2, “Polypeptides” (AFFIBODY AB, priority 2012, dated 2018).

Biological target: T1, biotinylated human CAIX (Homo sapiens, UniProt Q16790)
T1 construct: purchased R&D Systems 2188-CA
Assay: ELISA KD analysis (target titration) of CAIX binders
Assay type: binding
Settings: ELISA titration of biotinylated human CAIX 24 nM to 38 pM; periplasm samples, Z variant ABD fusions
Protocol: Single colonies containing Z variants (expressed as Z variant ABD fusion proteins as described in Example 3) were randomly picked from the selected clones of the CAIX maturated library and grown in 1 ml cultivations as described in Example 1. Periplasmic proteins were released by 6 repeated freeze-thawing cycles. ELISA screenings were performed essentially as described in Example 1 with the following exceptions. Half-area 96-well ELISA plates were coated with 2 μg/ml of an ABD specific goat antibody (produced in-house) diluted in coating buffer. The antibody solution was poured off and the wells were blocked with 100 μl of PBSC (PBS supplemented with 0.5% casein; Sigma, cat. no. C8654) for 1.5 h at RT. Biotinylated human CAIX was used at a concentration of 0.25 μg/ml (6 nM) diluted in PBSC and incubation was performed for 1 h. Streptavidin conjugated HRP was obtained from Thermo Scientific (cat. no. N100) and diluted 1:30,000 in PBSC before addition to the wells and incubated for 45 min. […] Absorbance of the wells was measured at 450 nm using a multi-well plate reader, Victor^3 (Perkin Elmer). […]
A selection of CAIX binders was subjected to an analysis of the response against a dilution series of biotinylated human CAIX using ELISA as described above. […] Obtained values were analyzed using GraphPad Prism 5 and non-linear regression.

| KD ELISA | Substance |
| --- | --- |
| Interrupted | Z06941: matured CAIX binding Z variant, 58 residues, SEQ ID NO:281 (VDAKYAKENIFAGWEIDDLPNLTDNQRHAFIYKLWDDPSQSSELLSEAKKLNDSQAPK; Engineered CAIX-binding polypeptide) |
| Ambiguous | Z06943: matured CAIX binding Z variant, 58 residues, SEQ ID NO:245 (VDAKYAKENLFAGWEITDLPNLTDYQRHAFIYKLWDDPSQSSELLSEAKKLNDSQAPK; Engineered CAIX-binding polypeptide) |

Biological target: T2, CAIX on SK-RC-52 cells (Homo sapiens, UniProt Q16790)
T2 construct: The CAIX-expressing renal clear cell carcinoma cell line SK-RC-52; endogenous in cells; host or cells: SK-RC-52 renal clear cell carcinoma cells (provided by Active Biotech, Sweden)
Assay: Immunofluorescence staining of SK-RC-52 cells for flow cytometry analysis
Assay type: cell-based
Settings: flow cytometry titration 2, 0.5, 0.05 and 0.003 μg/ml, monomer format
Protocol: SK-RC-52 cells (renal clear cell carcinoma cell line; kindly provided by Active Biotech, Sweden) were cultured in RPMI-1640 (Lonza) with the addition of 10% FCS, 1% glutamine and 1% PEST (penicillin-streptomycin). On the day of assay, SK-RC-52 cells were trypsinated, counted and 0.1-0.2×10^6 cells added to 5 ml falcon tubes. The cells were pelleted by centrifugation at 1200 rpm and supernatant removed. The cells were stained with following maturated Z variants in monomer format; Z06919, Z06936, Z06942, Z06959, Z06961, Z06976, Z06984, Z06986, Z06999, Z07084, Z07089 and Z07091. For screening, 100 μl of 12 different binders diluted in PBS 2% FCS to 10 μg/ml was added and cells were incubated for two hours at 4° C. Alternatively, the binders were titrated for EC50 value calculations at four different concentrations: 2, 0.5, 0.05 and 0.003 μg/ml. Z variant Z08693, which corresponds to Z variant Z04196 identified in Example 1 but for the amino acid substitution A54S, was included in the assay for comparison. A Z variant binding to an unrelated target was used as negative control and PBS was used as background control. The cells were washed once by filling up the tube with PBS and pelleting the cells by centrifugation. The pelleted cells were resuspended in 100 μl of a goat anti-Z variant-specific Ig, 5 μg/ml and incubated for one hour at 4° C. A goat anti-CAIX specific antibody, MAB2188 (R&D systems), was included as a positive control at a concentration of 5 μg/ml. Cells were subsequently washed in PBS as described and resuspended in 100 μl of Alexa488-labeled anti-goat antibody (Invitrogen) at a concentration of 10 μg/ml. After 45 minutes of incubation at 4° C., cells were washed in PBS, resuspended in 300 μl of PBS and subjected to FACS analysis using a FACSCantoll. The MFI was recorded.

| Substance | EC50 [nM] |
| --- | --- |
| Z06919: matured CAIX binding Z variant, 58 residues, SEQ ID NO:232 (VDAKYAKEHLFAGWEIEDLPNLTEYQRNAFIYKLWDDPSQSSELLSEAKKLNDSQAPK; His6 tag; Engineered CAIX-binding polypeptide) | 20 |
| Z06959: matured CAIX binding Z variant, 58 residues, SEQ ID NO:233 (VDAKYAKENLFAGWEITDLPNLTIEQRNAFIYKLWDDPSQSSELLSEAKKLNDSQAPK; His6 tag; Engineered CAIX-binding polypeptide) | 18 |
| Z06961: matured CAIX binding Z variant, 58 residues, SEQ ID NO:234 (VDAKYAKENLFAGWEIGDLPNLTEQQRHAFIYKLWDDPSQSSELLSEAKKLNDSQAPK; His6 tag; Engineered CAIX-binding polypeptide) | 17 |
| Z06999: matured CAIX binding Z variant, 58 residues, SEQ ID NO:238 (VDAKYAKEHLFAGWEITDLPNLTEQQRNAFIYKLWDDPSQSSELLSEAKKLNDSQAPK; His6 tag; Engineered CAIX-binding polypeptide) | 16 |
| Z07091: matured CAIX binding Z variant, 58 residues, SEQ ID NO:230 (VDAKYAKENLFAGWEIDDLPNLTESQRNAFIYKLWDDPSQSSELLSEAKKLNDSQAPK; His6 tag; Engineered CAIX-binding polypeptide) | 18 |
| Z08693: Z variant (SEQ ID NO:358) corresponding to Z04196 but for the amino acid substitution A54S (VDAKYAKEWKFASIEIADLPNLTQHQKDAFIFKLWDDPSQSSELLAEAKKLNDSQAPK; N-terminal His6 tag; Engineered CAIX binding polypeptide) | ~1800 |

The remaining lines, values ahead:

| EC50 [nM] | Substance |
| --- | --- |
| 11 | Z06984: matured CAIX binding Z variant, 58 residues, SEQ ID NO:236 (VDAKYAKENIFAGWEIDDLPNLTTYQRNAFIYKLWDDPSQSSELLSEAKKLNDSQAPK; His6 tag; Engineered CAIX-binding polypeptide) |
| 12 | Z06986: matured CAIX binding Z variant, 58 residues, SEQ ID NO:237 (VDAKYAKENLFAGWEINDLPNLTEYQRNAFIYKLWDDPSQSSELLSEAKKLNDSQAPK; His6 tag; Engineered CAIX-binding polypeptide) |
| 12 | Z07089: matured CAIX binding Z variant, 58 residues, SEQ ID NO:239 (VDAKYAKENIFAGWEITDLPNLTVQQRHAFIYKLWDDPSQSSELLSEAKKLNDSQAPK; His6 tag; Engineered CAIX-binding polypeptide) |

Same assay, conditions: flow cytometry titration 2, 0.5, 0.05 and 0.003 μg/ml, monomer format, listed as His6-Z08693

| EC50 [nM] | Substance |
| --- | --- |
| 1820 | Z08693: Z variant (SEQ ID NO:358) corresponding to Z04196 but for the amino acid substitution A54S (VDAKYAKEWKFASIEIADLPNLTQHQKDAFIFKLWDDPSQSSELLAEAKKLNDSQAPK; N-terminal His6 tag; Engineered CAIX binding polypeptide) |
